Test results published in article PMC12040169 (PLOS Biology, 2025).
The other results are listed elsewhere or left out.

System: T1, C. trachomatis L2/434/Bu expressing GFP (CTL2-GFP)
T1 construct: L2/434/Bu GFP intracellular growth in HeLa cells
Set-up: species or system HeLa; C. trachomatis total inclusion area by high-content imaging, normalised to DMSO
Details: total inclusion area; 28.5 h, 10 µM; inhibitor
Summary of the method: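 Post-fluorescence-read fixation, DNA staining with Hoechst and high-content imaging; GFP inclusion area and number per well, and nuclei counts, used as proxies for bacterial growth and host viability.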

Going from `Nc1cc2cccnc2c(-c2ccsc2)n1` [CBK081218] to `Nc1nc(=O)c2cnc3c(Cl)cccc3c2s1` [CBK291229], the “% of control remaining” value falls from 98.497 to 95.5883.

Compared with `CCc1nccnc1OC` [CBK089673], `CN(C)CCCOC(=O)c1cccnc1Cl` [CBK027436] is higher in “% of control remaining” value: 62.6371 for the first, 107.48 for the second.

First: C=CCOc1ccc(CNCCN2CCOCC2)cc1 [CBK278215C]
Second: Cc1ccc(CSCC(=O)NCCN2CCOCC2)cc1 [CBK269327]
The “% of control remaining” value of the first is lower: 102.167 for the first, 102.743 for the second.

Going from `O=C1NCCNC(=O)C2(C/C=C/COc3ccccc31)CCN(Cc1ccccc1F)CC2` [CBK292024] to `C[C@H](NC1=NC(=O)C2(CCN(Cc3ccccc3)CC2)O1)c1ccccc1` [CBK122798T], the “% of control remaining” value rises from 103.179 to 103.522.

First: C=CCN1C(=O)CC2(C1=O)C(=O)N(Cc1csc(-c3ccccc3)n1)c1ccc(Cl)cc12 (centres unmarked) [CBK075445]
Second: COc1cccc(-n2c(=O)[nH]c3c(C(N)=O)nc(-c4ccccc4)nc32)c1 [CBK287740]
The “% of control remaining” value of the first is higher: 107.791 for the first, 59.2323 for the second.

Compared with `CCOC(=O)Cc1csc(NS(=O)(=O)/C=C/c2ccccc2)n1` [CBK000072], `Cc1ccc(S(=O)(=O)NC(C(=O)O)c2ccccc2)cc1` (centres unmarked) [CBK286985] is lower in “% of control remaining” value: 126.924 for the first, 59.7523 for the second.

Compared with `Cc1cc(NC(=O)CCN2CCC(N3CCNC3=O)CC2)no1` [CBK304909], `CCOC(=O)N1CCN(C(=O)c2c(C)nn(C)c2Cl)CC1` [CBK304522] is lower in “% of control remaining” value: 65.2631 for the first, 31.7928 for the second.

Going from `CSCCCNC(=O)N1CCN(CCN2CCOCC2)CC1` [CBK155669] to `Fc1ccccc1CN1CCN(c2nccnc2OCCN2CCOCC2)CC1` [CBK082886T], the “% of control remaining” value rises from 76.101 to 83.418.

First: Cc1cc(CN(C)C(=O)c2cc3sccc3[nH]2)no1 [CBK304340]
Second: CN1CCCC(NC(=O)c2cc(-c3cccs3)no2)C1 (centres unmarked) [CBK282564]
The “% of control remaining” value of the first is lower: 65.5067 for the first, 89.4456 for the second.

Compared with `Cc1ccc(N2C(=O)c3ccccc3NC23C(=O)N(C)c2ccc(Br)cc23)cc1` (centres unmarked) [CBK103752], `O=C1c2ccccc2NC(c2ccccc2F)N1O` (centres unmarked) [CBK288377] is lower in “% of control remaining” value: 85.5653 for the first, 59.8354 for the second.

Going from `CS(=O)(=O)Cc1cccc(C(=O)Nc2ccc(Oc3ccccc3)cc2)c1` [CBK297111] to `COc1cc(S(=O)(=O)Nc2ccc(CC(=O)O)cc2)ccc1Cl` [CBK287019], the “% of control remaining” value rises from 86.911 to 95.6305.

First: Cc1ccc(NC(=O)c2cccnc2)c(C(=O)O)c1 [CBK000177]
Second: COCCN1C(=O)c2ccc(C(=O)Nc3ccc(O)c(C(=O)O)c3)cc2C1=O [CBK268344]
The “% of control remaining” value of the first is lower: 72.6393 for the first, 105.767 for the second.

Going from `CCCCN(C)c1c(C)nc2ccc(C(=O)N(C)CCCN(C)C)cn12` [CBK146006] to `CN(C)CCCN1C(=O)C(O)=C(C(=O)c2cccs2)C1c1cccnc1` (centres unmarked) [CBK264511], the “% of control remaining” value rises from 95.4813 to 107.781.

Going from `Nc1ncc(-c2cccc(CO)c2)nc1NC1CCCCC1` [CBK063650] to `O=C(NCCO)c1cccc(-c2cnc3[nH]c(=O)n(Cc4ccccn4)c3n2)c1` [CBK065034], the “% of control remaining” value falls from 135.11 to 84.0168.

Compared with `O=C(O)c1cc(S(=O)(=O)Nc2cccc(-c3cnco3)c2)c(F)cc1Cl` [CBK067126], `O=C(COc1ccccc1[N+](=O)[O-])Nc1cc(-c2nc3cc(Cl)ccc3o2)ccc1Cl` [CBK268639] is lower in “% of control remaining” value: 104.751 for the first, 92.5837 for the second.

First: NC(=O)c1c(NC(=O)Cn2cnc([N+](=O)[O-])n2)sc2c1CCCC2 [CBK027935]
Second: Cc1nnc(SCC(=O)n2c3c(c4ccccc42)CCCC3)n1C [CBK268351]
The “% of control remaining” value of the first is lower: 81.4132 for the first, 121.512 for the second.

Going from `CC(C)N1CCC(CNC(=O)c2cc(C3CCCCC3)no2)CC1` [CBK283293] to `CC(NC(=O)CCc1ccncc1)C1CC2CCC1C2` (centres unmarked) [CBK282090], the “% of control remaining” value falls from 99.5856 to 90.8278.

Compared with `COc1ncccc1C(=O)N1CCN(c2ccccc2)CC1` [CBK200166], `O=C(CCN1Cc2ccccc2C1=O)NCCN1CCc2ccccc21` [CBK282632] is higher in “% of control remaining” value: 92.7285 for the first, 138.783 for the second.

Going from `O=C(O)CCCCC/N=C1\CCc2ccccc2N1` [CBK286773] to `Cc1nc2ncnc(N3CCc4ccccc43)c2[nH]1` [CBK291228], the “% of control remaining” value falls from 118.801 to 85.4165.

First: O=C1CC[C@@H](C(=O)N2CCc3nc(-c4ccccc4F)sc3C2)N1 [CBK281891]
Second: C=Cn1cc(CN2C3CCC2CC(O)(c2ccc(F)cc2)C3)c(C)n1 (centres unmarked) [CBK282742]
The “% of control remaining” value of the first is lower: 100.926 for the first, 112.446 for the second.

Compared with `Cc1cc(NC(=O)C(=O)NC(C)c2ccccc2)ccc1Br` (centres unmarked) [CBK267084], `Cc1cc(C)n2c(Nc3ccc(S(N)(=O)=O)cc3)nnc2n1` [CBK267601] is higher in “% of control remaining” value: 97.4869 for the first, 103.425 for the second.

Going from `CCCCc1ccc(Nc2csc(N)n2)cc1` [CBK020594] to `Cc1ccc(NC2C=CS(=O)(=O)C2)cc1` (centres unmarked) [CBK057487], the “% of control remaining” value rises from 0.2915 to 80.9245.

Going from `Cc1nc(NS(=O)(=O)c2c(C)noc2C)sc1C(=O)Nc1ccc(F)cc1` [CBK050551] to `COc1ccc(C)cc1Nc1nc(N)nc(-c2oc3ccccc3c2C)n1` [CBK269026], the “% of control remaining” value falls from 96.3948 to 86.4856.

Going from `CCn1cc(CN2CCC(Oc3cc(C)ccc3F)(C(=O)O)CC2)cn1` [CBK306644] to `O=C(NCc1cccs1)C1(Cc2cccc(-c3ccc(F)c(F)c3)c2)CCOCC1` [CBK285569], the “% of control remaining” value rises from 61.9145 to 95.0137.

Going from `Cc1cc(C)c2cc(C)c3nn(CC(=O)N(C)C)c(=O)n3c2c1` [CBK283821] to `Cc1ccc(CN(CCCn2ccnc2)Cc2[nH]cnc2C)s1` [CBK283138], the “% of control remaining” value rises from 63.8555 to 99.8077.

Compared with `Cc1ccc(CN2C[C@@H]3CC[C@@](O)(c4ncccc4C)[C@@H]3C2)o1` [CBK285361], `CN(C)c1ccc(-n2ncc(-c3ccccc3C(F)(F)F)n2)cc1` [CBK112716] is lower in “% of control remaining” value: 104.061 for the first, 101.996 for the second.

With `CCNC(=O)CN(CC)S(=O)(=O)c1cccc(C#N)c1` [CBK306481] the “% of control remaining” value was 28.9204.
